The text below walks through data of the supplement of paper PMC11417369.

± gives the standard deviation of the averaged measurements. The list shows a part of the results.

The test system of the assay is PfAP2-G AP2 domain (GST-tagged). As to the kind of experiment: gcPBM binding intensity (ln(normalized median fluorescence intensity)); higher = stronger DNA binding. In short, it runs like this:
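DNA-binding domains from P. falciparum, fused to GST and produced in E. coli, were put on an Agilent 4 × 180k double-stranded probe array for 1 h in 1× PBS holding 1% milk, 0.2 mg/ml BSA, 0.5% salmon testes DNA and 0.03% Triton X-100. Probes were primer-extended, 36 bp long and drawn from intergenic genomic regions, with negative controls included. After Alexa488 anti-GST antibody detection and a 488 nm scan, binding intensity was set as the highest Masliner-normalised natural-log median intensity across replicate spots of either probe orientation.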
Consider “ATTTATTTCTATAATACACACAAATATCTTAATTAA [CACACA_site7801]”, for which the “gcPBM binding intensity (ln)” value worked out at 9.95 ± 0.2.

Consider “ATGTCATAAATGTACGCACACATACATAAACATATA [CACACA_site4530]”, for which the “gcPBM binding intensity (ln)” value was 11.6 ± 1.

For the sequence “TTCATTTTAATTTCCAGTACACATATATATACATAT [XGTACX_site558]”, the “gcPBM binding intensity (ln)” value amounted to 11.2 ± 0.79.

As to ATTATATTTATGTTGGTGCATTATACATGAAATTTA, the “gcPBM binding intensity (ln)” value is 10.2 ± 0.31.

Consider “AATATAATACAATATTGTACATAATATAAATTAAAA [XGTACX_site4064]”, for which the “gcPBM binding intensity (ln)” value was determined as 10.9 ± 0.62.

As for ATATATTAACAAAAGGTGCTTTTGGCAAAGTATAAT, the “gcPBM binding intensity (ln)” value amounted to 10.2 ± 0.2.

For the sequence “ATAAAAATGGTGTTAACACACACATATATATATATA [CACACA_site8089]”, the “gcPBM binding intensity (ln)” value turned out to be 10.3 ± 0.53.

“TTATTTAAATATTGATGTACTCTCCTTATTATAATA [XGTACX_site1240]”: the “gcPBM binding intensity (ln)” value came to 11.2 ± 0.78.

As to “TATATGTTATATTGGACACACACAATAAACATTATG [CACACA_site8480]”, the “gcPBM binding intensity (ln)” value stood at 10.7 ± 0.64.

For the sequence “AAACATAAAGAAAAAAAAAATATATATTTATTTATT [GTGCAC_negctrl_site357]”, the “gcPBM binding intensity (ln)” value is 9.56 ± 0.23.

As to “GGTAATTATTTTGGTTGTACTCAAATATATAATATT [XGTACX_site291]”, the “gcPBM binding intensity (ln)” value is 11.4 ± 0.9.

For “TAATATATGTATTGCACACCTATAACCATTATTTCT [CACACA_site1498]”, the “gcPBM binding intensity (ln)” value is 10.04 ± 0.021.

As to “AAAAGCAAGTTCCAGGGTACATATATATGAAAAAAC [XGTACX_site2408]”, the “gcPBM binding intensity (ln)” value turned out to be 11.1 ± 0.68.

“TACAATTTTTTAAATGCACACAAAAGGAATAAATAA [CACACA_site8075]”: the “gcPBM binding intensity (ln)” value amounted to 10.3 ± 0.25.

ACGTTAAAATATTGGGTGCTAACACAATAAAAATAA: the “gcPBM binding intensity (ln)” value was found to be 10.2 ± 0.18.

Regarding “AAAAATATGTCCATGAAAAGGATAGGCAGGTAATCA [XGTACX_negctrl_site93]”, the “gcPBM binding intensity (ln)” value is 10.4 ± 0.24.

Consider “AAATATATTTTACATTGTACATGAATAAACTATAAA [XGTACX_site2080]”, for which the “gcPBM binding intensity (ln)” value amounted to 10.9 ± 0.45.

As to “AAAAATTAAATAAATTTACACACTAATAATTACATA [CACACA_site8260]”, the “gcPBM binding intensity (ln)” value was found to be 9.71 ± 0.12.

As to “AAGTTTTATTTAAATTGTACTAAAATTTTTATATTA [XGTACX_site7065]”, the “gcPBM binding intensity (ln)” value worked out at 11 ± 0.69.

As to “TATATATAAATATTCAGTACATAGTATTATTAAGTA [XGTACX_site1980]”, the “gcPBM binding intensity (ln)” value was 10.8 ± 0.64.

Regarding “ATAAAATGAACAAACACACACACATATATATATATA [CACACA_site2402]”, the “gcPBM binding intensity (ln)” value was found to be 10.1 ± 0.32.

As to “TCTTGTTTTCAAATATGTACATAGAATAGACATTTT [XGTACX_site684]”, the “gcPBM binding intensity (ln)” value was found to be 11.3 ± 0.72.

Turning to “AAATATATAAAATATACACACAGTAATATATATATA [CACACA_site1385]”, the “gcPBM binding intensity (ln)” value is 9.655 ± 0.007.

Consider “TTTTTCTTTCTCTATTGTACACATGGAAACACATAA [XGTACX_site4601]”, for which the “gcPBM binding intensity (ln)” value came to 11.4 ± 0.92.

With “TATTTAAGAATATGAAGTACATATATTATTTAAAAA [XGTACX_site7897]”, the “gcPBM binding intensity (ln)” value stood at 11.3 ± 1.

As to “CATATAAATAAATACACACACACACGCCTTATAATT [CACACA_site7830]”, the “gcPBM binding intensity (ln)” value was found to be 10.2 ± 0.14.

With “TATATAGGTATCATTACACACATGTATACTTATTTG [CACACA_site7864]”, the “gcPBM binding intensity (ln)” value stood at 10.4 ± 0.16.

For “CCTAAAAAAAAGAAATGATATACATATGTATATATA [GTGCAC_negctrl_site100]”, the “gcPBM binding intensity (ln)” value came to 9.685 ± 0.064.

As to “ATATATTGAACATATTGTACATTTTGTTAATATTTT [XGTACX_site7622]”, the “gcPBM binding intensity (ln)” value was determined as 10.7 ± 0.43.

On to “TACAAAAAAAAAAAATAGATAAAATAATAATCAAAT [TGCATGCA_negctrl_site524]”, for which the “gcPBM binding intensity (ln)” value amounted to 9.46 ± 0.23.

For “TCTCAAGTTGTTAAAAAATAAAAACAATAAATCTAA [CACACA_negctrl_site165]”, the “gcPBM binding intensity (ln)” value was determined as 9.62 ± 0.014.

For the sequence “CAATTTTTTAAATGCACACAAAAGGAATAAATAAAT [CACACA_site544]”, the “gcPBM binding intensity (ln)” value stood at 10.4 ± 0.2.

Consider “AAGAAGAAATGCTTTGCATGCAAATTTTATGCCAAC [TGCATGCA_site721]”, for which the “gcPBM binding intensity (ln)” value amounted to 9.68 ± 0.26.

For “AACAATTGGAATAACGCATGCATTTATAATATAGAA [TGCATGCA_site298]”, the “gcPBM binding intensity (ln)” value came to 9.71 ± 0.35.

On to “TAAAATAATTTATGCATACACACATATATATATATA [CACACA_site4021]”, for which the “gcPBM binding intensity (ln)” value is 10 ± 0.3.

For the sequence “TGAATATTCCTATGCACACAAATTAAAATACATAAT [CACACA_site4403]”, the “gcPBM binding intensity (ln)” value was found to be 10.2 ± 0.27.

Turning to “ACAAATTTATACTTAAAACACACGTAATCATTTATA [CACACA_site1636]”, the “gcPBM binding intensity (ln)” value came to 9.985 ± 0.035.

“ATAGCTTTTATTTAAAGTACAAAAAGGATGTTGAAA [XGTACX_site3810]”: the “gcPBM binding intensity (ln)” value turned out to be 11 ± 0.61.

“ATATATATTTATATTTGTACGAATTAAAATTTTTTA [XGTACX_site5200]”: the “gcPBM binding intensity (ln)” value is 11 ± 0.66.

For the sequence “ATTTAAAACAAAAGTAGTACGTCTAATAAATTCAAC [XGTACX_site4344]”, the “gcPBM binding intensity (ln)” value came out at 11.6 ± 1.1.

As for “TTATCAATAAAATGCACACACTGTAATATTATTAAA [CACACA_site6055]”, the “gcPBM binding intensity (ln)” value worked out at 9.99 ± 0.16.

Consider “AGACAAAATGTTTGAAGTACTTTTTATCAAATTAAA [XGTACX_site8885]”, for which the “gcPBM binding intensity (ln)” value stood at 11.2 ± 0.69.

Regarding “AAAAAAAAAAAACACACACACACACCCATACATACA [CACACA_site707]”, the “gcPBM binding intensity (ln)” value amounted to 10.4 ± 0.36.

As to “TGATTTTTTCATATTCTACACACGTGAACAAATGTG [CACACA_site8987]”, the “gcPBM binding intensity (ln)” value came to 10.6 ± 0.26.
